Screen size: about 280,000 compounds; about 1,100 (0.39%) were called active. Inconclusive results, whose numbers are uncertain, are shown with a selection of clear calls. Calls come from the whole dose curve; as a rule, active = well fitted inhibition curve with a large enough effect; inconclusive = small, poorly fitted or top-dose-only effect, or effect the other way; inactive = flat fitted curve, though single readings scatter. Potencies of inconclusive entries are doubtful fits and often do not repeat.
biological target: Microtubule-associated protein tau (Homo sapiens) (UniProt P10636); assay: qHTS for Inhibitors of Tau Fibril Formation, Fluorescence Polarization; details: K18 P301L tau heparin fibrillization, Alexa594 FP, 6 h; series mostly up to 57.7 µM; note: nearly all actives have a fitted effect of over 55% in size
UniProt P10636, sequence (P10636 whole entry, looked up): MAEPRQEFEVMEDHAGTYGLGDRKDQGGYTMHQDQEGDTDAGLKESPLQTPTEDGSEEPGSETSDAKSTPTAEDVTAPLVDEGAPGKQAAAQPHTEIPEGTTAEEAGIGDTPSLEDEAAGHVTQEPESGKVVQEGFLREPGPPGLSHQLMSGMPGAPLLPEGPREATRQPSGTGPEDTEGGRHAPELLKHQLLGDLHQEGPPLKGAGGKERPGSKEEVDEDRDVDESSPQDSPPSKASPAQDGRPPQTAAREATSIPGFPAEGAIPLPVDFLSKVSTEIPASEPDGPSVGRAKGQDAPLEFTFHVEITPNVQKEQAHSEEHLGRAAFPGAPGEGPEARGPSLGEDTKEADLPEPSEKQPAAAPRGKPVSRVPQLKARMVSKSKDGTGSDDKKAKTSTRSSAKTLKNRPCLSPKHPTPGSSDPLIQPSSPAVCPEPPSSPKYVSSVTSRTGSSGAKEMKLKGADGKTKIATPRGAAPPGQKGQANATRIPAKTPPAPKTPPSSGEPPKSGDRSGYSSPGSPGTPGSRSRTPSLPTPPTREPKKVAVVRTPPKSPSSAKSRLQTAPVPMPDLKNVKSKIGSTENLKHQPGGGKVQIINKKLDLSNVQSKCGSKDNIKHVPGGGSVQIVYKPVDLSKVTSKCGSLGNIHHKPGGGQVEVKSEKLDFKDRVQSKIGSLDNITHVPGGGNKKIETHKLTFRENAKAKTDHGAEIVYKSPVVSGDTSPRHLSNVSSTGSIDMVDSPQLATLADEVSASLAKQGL
How it was run: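 Read-out: fluorescence polarization of Alexa 594-labeled tau (0.24 uM), 555 nm excitation, 632 nm emission. Mixtures held 15 uM unlabeled K18 P301L, compound and 20 uM heparin, pH 7 acetate buffer, incubated 6 hr at 37 C.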
Potency is the fitted concentration of half-maximal effect; tags give direction and shape of the fitted curve.

Potency, inactive:
CCCSc1ncc(Cl)c(C(=O)NCc2ccc(OC)cc2)n1
Cc1ccccc1NC(=O)NCc1ccc2c(c1)OCO2
Cc1ccc(O)c(NC(=O)c2noc3c2CCCC3)c1
CCn1c(SCC(=O)N/N=C/C=C/c2ccccc2[N+](=O)[O-])nnc1-c1ccc(Cl)cc1
COc1cccc(CN2CCNC(=O)C2CC(=O)NCCc2nc(C)c(C)s2)c1OC (stereo not given)
CCc1cccc(C)c1NC(=O)CCn1c(=O)c2cccn2c2ccccc21
COc1ccc(C(=O)N/C(=C\c2cccc3ccccc23)C(=O)N2CCN(C)CC2)cc1OC
CCOC(=O)c1c(C(=O)OCC)c(C)n(N2C(=O)CSC2=S)c1C
O=S(=O)(Cc1ccccc1)c1nnnn1-c1ccccc1
S=C(c1c[nH]c2ccccc12)N1CCOCC1
Cc1ccccc1C(=O)NC1(C(F)(F)F)N=C(c2ccccc2)N(C2CCCCC2)C1=O (stereo not given)
O=C(COC(=O)C1CCN(S(=O)(=O)c2cc([N+](=O)[O-])ccc2Cl)CC1)Nc1ncc(Cl)cc1Cl
COc1ccc(N2CCN(c3csc4ccc(Cl)cc4c3=O)CC2)cc1
COc1ccc(OCC(=O)NC2CC(=O)N(c3cccc(OC)c3)C2)cc1 (stereo not given)
CCOCC(=O)Nc1ccc(Br)c(C)c1
CN(C)S(=O)(=O)c1cc(NC(=O)CN2CCN(c3ccc(O)cc3)CC2)ccc1Cl

Potency, active:
C/C(N)=C(/C#N)C(=O)COC(=O)c1cc(-c2cccc3ccccc23)nc2ccccc12 11.2 µM
CCOc1ccc2nc(Cl)c(C3CC(c4ccc(OC)cc4)=NN3S(C)(=O)=O)cc2c1 (stereo not given) 35.5 µM

Potency, inconclusive:
CCc1ccc(C(=O)COC(=O)c2n[nH]c3ccccc23)cc1 17.8 µM [inhibitor, partial curve]
CN(Cc1ccccc1)C(=O)COC(=O)c1cc(-c2ccc(Cl)s2)nc2ccccc12 14.1 µM [inhibitor, partial curve, poor fit]
Cc1ccccc1NC(=O)c1cccc2c(=O)c3c([nH]c12)CCCC3 12.6 µM [inhibitor, single point]
O=C(CNc1cccc([N+](=O)[O-])c1)N/N=C/c1ccc([N+](=O)[O-])o1 44.7 µM [activator, single point]
Cn1c(CC(=O)Nc2ccc(Cl)c(Cl)c2)nnc1SCC(=O)NCc1ccccc1 0.316 µM [inhibitor, full curve, poor fit]
CSc1ccc(CCNC(=O)c2ccc(-c3nc(COc4ccc(C)cc4)c(C)o3)cc2)cc1 22.4 µM [inhibitor, single point]
CCOc1ccc2nc(NCCNC(=O)Nc3ccccc3)c(C#N)cc2c1 20 µM [inhibitor, single point]
O=C(CSc1c2c(nc3cc(Cl)ccc13)CCCC2)NCCN1CCOCC1 39.8 µM [activator, single point]
CN(CCOc1ccc(C[C@H](Nc2ccccc2C(=O)c2ccccc2)C(=O)O)cc1)c1ccccn1 8.91 µM [inhibitor, single point]
O=C(CCn1c2c(c3ccccc31)CCCC2)NNC(=O)c1cccc([N+](=O)[O-])c1 0.0447 µM [activator, full curve, poor fit]
COC(=O)c1ccc(CSc2ccccc2C)o1 44.7 µM [inhibitor, single point]
CCOc1ccc(-n2nc(CO)c(C(=O)NCc3cccs3)n2)cc1 3.98 µM [inhibitor, single point]
Cc1ccc(N2C(=O)N(Cc3cc(=O)n4ccccc4n3)c3ccccc3S2(=O)=O)cc1Cl 20 µM [inhibitor, single point]
COc1ccc(C(CNC(=O)COc2ccc(-c3ccccc3)cc2)N2CCOCC2)cc1 (stereo not given) 28.2 µM [activator, single point]
O=c1[nH]cc(NCCc2ccccc2)c(=O)[nH]1 11.2 µM [inhibitor, partial curve]
CCCNC(=O)COC(=O)c1ccccc1C(=O)N(C)C1CCCCC1 1.58 µM [inhibitor, partial curve]
COc1ccc(-c2cc(C(=O)NC(C(=O)O)C(C)C)c(C)o2)cc1OC (stereo not given) 0.398 µM [inhibitor, full curve]
CCOc1ccc(N2C(=O)c3n[nH]c(-c4cccs4)c3C2c2cccc(F)c2)cc1 (stereo not given) 31.6 µM [inhibitor, single point]
CCc1ccc(NC(=O)c2ccc(F)c(S(=O)(=O)NCc3ccc(Cl)c(Cl)c3)c2)cc1 14.1 µM [inhibitor, partial curve]
COc1ccc(C2C(C(=O)NC(C)C)c3ccccc3C(=O)N2C)cc1OC (stereo not given) 31.6 µM [inhibitor, single point]
Cc1ccc(C2(c3ccc(C)cc3)CC2C(=O)Nc2ccc([N+](=O)[O-])cc2O)cc1 (stereo not given) 39.8 µM [inhibitor, single point]
COC(=O)c1c(SC)nc2ccccc2c1OCc1ccc(Cl)cc1 15.8 µM [inhibitor, partial curve]
O=C(COCc1cc(-c2ccc3c(c2)OCO3)on1)N1CCN(c2cccc(Cl)c2)CC1 11.2 µM [inhibitor, partial curve]
CN(C)S(=O)(=O)c1ccc(C(=O)OCC(=O)c2ccc3c(c2)NC(=O)CO3)cc1 25.1 µM [inhibitor, single point]
Fc1ccc(Nc2nc(-c3ccncc3)nc3ccccc23)cc1F 7.94 µM [inhibitor, full curve]
COc1ccc(CNC(=O)c2cc(-c3cc(C)cc(C)c3O)n[nH]2)cc1 20 µM [inhibitor, partial curve]
Cc1cccc(Nc2nc3c(S(=O)(=O)c4ccccc4)nnn3c3ccccc23)c1 2 µM [inhibitor, full curve]
CCOC(=O)c1oc2ccc(S(=O)(=O)n3nc(-c4cc(OC)c(OC)c(OC)c4)cc3N)cc2c1C 8.91 µM [inhibitor, partial curve]
O=C(NC(=O)c1ccccc1)Nc1ccc(-c2cc(C(F)(F)F)nn2-c2ccccc2)cc1 39.8 µM [inhibitor, single point]
Cc1ccccc1NC(=S)N(CCc1c(C)[nH]c2ccc(F)cc12)Cc1cccnc1 1.78 µM [activator, partial curve]
CCc1ccccc1Nc1nn2c(=O)c3ccc(C(=O)NCc4ccccc4OC)cc3nc2s1 39.8 µM [inhibitor, single point]
NS(=O)(=O)c1ccc(NC(=O)CN2C(=O)COc3ccc(Cl)cc32)cc1 0.794 µM [inhibitor, single point]
COc1ccc(O)c(C(c2c(C)[nH][nH]c2=O)c2c(C)[nH][nH]c2=O)c1 10 µM [inhibitor, partial curve]
O=C(Nc1ccc(O)cc1C(=O)O)c1cccc(Br)c1 22.4 µM [activator, single point]
CCO[C@H]1OC(C(=O)NCc2ccccc2)=C[C@@H](c2ccc(Br)cc2)[C@@H]1CCCO 22.4 µM [activator, single point]
COc1ccc(S(=O)(=O)n2ccc(-c3ccc4c(c3)CCC(C)(C)O4)n2)cc1 17.8 µM [inhibitor, partial curve]
CN(C)S(=O)(=O)c1ccc2c(c1)N(CC(=O)Nc1ccc(OC(F)(F)F)cc1)C(=O)CS2 22.4 µM [inhibitor, single point]
O=C(Nc1ccc(F)cc1)Nc1nnc(-c2ccncc2)s1 39.8 µM [inhibitor, single point]
O=C1CN(C(=O)COC(=O)/C=C/c2ccc(OC(F)F)cc2)c2ccccc2N1 44.7 µM [inhibitor, single point]
O=C(NNC(=O)c1cccs1)c1ccc(Cl)c(Cl)c1 31.6 µM [inhibitor, single point]
COc1ccc(NC(=O)/C(Cl)=C(/Cl)S(=O)Cc2ccc(C)cc2)cn1 (stereo not given) 4.47 µM [inhibitor, full curve]
CC(C)(C)c1ccc(C(=O)NCC(=O)OCC(=O)Nc2nc(-c3ccc(F)cc3)cs2)cc1 35.5 µM [inhibitor, partial curve]
Fc1cccc(NC(=S)Nc2ccc(Br)cc2)c1 25.1 µM [inhibitor, partial curve, poor fit]
CSc1cccc(NC(=O)CCCOc2ccc(Cl)cc2Cl)c1 7.94 µM [inhibitor, partial curve]
O=S(=O)(Nc1nc(SCc2ccc(Cl)cc2)n[nH]1)c1ccc(F)cc1 14.1 µM [inhibitor, partial curve]
O=S(=O)(c1ccccc1)c1nnn2c1nc(NCc1ccc(F)cc1)c1sccc12 20 µM [inhibitor, partial curve, poor fit]
CCS(=O)(=O)NC(C)C(c1cccs1)N1CCN(C)CC1 (stereo not given) 5.01 µM [inhibitor, single point]

Source: PubChem BioAssay AID1468 (National Center for Advancing Translational Sciences (NCATS), 2008)
